Source: the supplement of paper PMC4967469
The IC50 comes from the fitted curve, where viability falls to half of the control; where the fit passes the top or lowest dose, that dose stands as a limit. For AUC the same curve is integrated over the 256-fold range of doses and scaled to a fraction; values near 1 show little effect. For part of these data: The top dose, if marked as inferred, comes from the curve model; the source does not state it. For part of these data: Where an entry number is given, a second screen of the drug exists; the two often differ.

Columns and labels:
Assay in all cases: Viability of human cancer cell lines after 72 h of drug (GDSC screen)
YM155 = compound: COCC[n+]1c2c(n(Cc3cnccn3)c1C)C(=O)c1ccccc1C2=O [YM155]; details: top dose 5.12 µM
Method: (§1)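 Human cancer cell lines in 384-well plates, medium with 10% serum, drug for 72 h over a 256-fold dose range (nine 2-fold or five 4-fold steps up to the top dose). Adherent lines were fixed and stained with the nucleic acid dye Syto60, suspension lines read with resazurin; signal relative to control wells, capped at 0 and 100%. One two-parameter sigmoid per drug and line, fitted in a mixed model over all curves with the slope shared within a line.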

Belinostat = compound: O=C(/C=C/c1cccc(S(=O)(=O)Nc2ccccc2)c1)NO [Belinostat]; details: top dose 20 µM; top dose inferred
Method: as §1

JQ1 = compound: Cc1sc2c(c1C)C(c1ccc(Cl)cc1)=N[C@@H](CC(=O)OC(C)(C)C)c1nnc(C)n1-2 [JQ1]
Method: as §1

NSC-207895 = compound: CN1CCN(c2ccc([N+](=O)[O-])c3no[n+]([O-])c23)CC1 [NSC-207895]; details: top dose 20 µM; top dose inferred
Method: as §1

FTI-277 = compound: COC(=O)[C@H](CCSC)NC(=O)c1ccc(NC[C@@H](N)CS)cc1-c1ccccc1 [FTI-277]; details: top dose 1.024 µM; top dose inferred
Method: as §1

OSI-906 = compound: C[C@]1(O)C[C@@H](c2nc(-c3ccc4ccc(-c5ccccc5)nc4c3)c3c(N)nccn32)C1 [OSI-906]; details: top dose 2.56 µM; top dose inferred
Method: as §1

Docetaxel = compound: CC(=O)O[C@@]12CO[C@@H]1C[C@H](O)[C@@]1(C)C(=O)[C@H](O)C3=C(C)[C@@H](OC(=O)[C@H](O)[C@@H](NC(=O)OC(C)(C)C)c4ccccc4)C[C@@](O)([C@@H](OC(=O)c4ccccc4)[C@H]21)C3(C)C [Docetaxel]; details: top dose 0.0125 µM
Method: as §1

JNJ-26854165 = compound: c1ccc2c(CCNc3ccc(Nc4ccncc4)cc3)c[nH]c2c1 [JNJ-26854165]; details: top dose 10 µM
Method: as §1

SB-715992 = compound: Cc1ccc(C(=O)N(CCCN)[C@@H](c2nc3cc(Cl)ccc3c(=O)n2Cc2ccccc2)C(C)C)cc1 [SB-715992]; details: top dose 0.128 µM; top dose inferred
Method: as §1

JNK Inhibitor VIII = compound: CCOc1nc(NC(=O)Cc2cc(OC)ccc2OC)cc(N)c1C#N [JNK Inhibitor VIII]; details: top dose 10 µM; top dose inferred
Method: as §1

AMG-706 = compound: CC1(C)CNc2cc(NC(=O)c3cccnc3NCc3ccncc3)ccc21 [AMG-706]; details: top dose 2 µM; top dose inferred
Method: as §1

[1] = top dose 1 µM, screen: GDSC drug entry 1218, top dose inferred
[2] = top dose 2.56 µM, screen: GDSC drug entry 163

Cell Line	AUC (YM155)	IC50 (YM155)	AUC (Belinostat)	IC50 (Belinostat)	AUC (JQ1; [1])	IC50 (JQ1; [1])	AUC (JQ1; [2])	IC50 (JQ1; [2])	AUC (NSC-207895)	IC50 (NSC-207895)	AUC (FTI-277)	IC50 (FTI-277)	AUC (OSI-906)	IC50 (OSI-906)	AUC (Docetaxel)	IC50 (Docetaxel)	AUC (JNJ-26854165)	IC50 (JNJ-26854165)	AUC (SB-715992)	IC50 (SB-715992)	AUC (JNK Inhibitor VIII)	IC50 (JNK Inhibitor VIII)	AUC (AMG-706)	IC50 (AMG-706)
KU-19-19 (bladder, adherent)	0.156	27.8 nM	0.441	864 nM	0.986	> 1000 nM	0.933	> 2560 nM	0.987	> 20000 nM	0.984	> 1020 nM	0.967	> 2560 nM	0.904	> 12.5 nM	0.548	844 nM	0.986	> 128 nM	0.974	> 10000 nM	–	–
NCI-H508 (large intestine, semi-adherent)	–	–	–	–	0.946	> 1000 nM	–	–	–	–	–	–	–	–	0.897	> 12.5 nM	0.938	> 10000 nM	–	–	0.976	> 10000 nM	0.976	> 2000 nM
NCI-H1341 (small cell lung carcinoma, suspension)	–	–	–	–	0.919	> 1000 nM	–	–	–	–	–	–	–	–	0.922	> 12.5 nM	0.962	> 10000 nM	–	–	0.992	> 10000 nM	0.991	> 2000 nM
MHH-CALL-2 (B-cell leukaemia, suspension)	–	–	–	–	0.997	> 1000 nM	–	–	–	–	–	–	–	–	0.992	> 12.5 nM	0.984	> 10000 nM	–	–	0.991	> 10000 nM	0.982	> 2000 nM
MM1S (myeloma, suspension)	–	–	–	–	–	–	–	–	–	–	–	–	–	–	0.884	12.4 nM	0.856	7420 nM	–	–	0.987	> 10000 nM	0.987	> 2000 nM
VMRC-LCD (lung adenocarcinoma, adherent)	–	–	–	–	0.992	> 1000 nM	–	–	–	–	–	–	–	–	0.727	3.02 nM	0.936	> 10000 nM	–	–	0.993	> 10000 nM	0.993	> 2000 nM
JHOS-4 (ovary, adherent)	–	–	–	–	–	–	–	–	–	–	–	–	–	–	0.789	8.42 nM	0.92	> 10000 nM	–	–	0.957	> 10000 nM	0.931	> 2000 nM
EW-22 (Ewing sarcoma, adherent)	–	–	–	–	0.985	> 1000 nM	–	–	–	–	–	–	–	–	0.86	9.81 nM	0.816	5250 nM	–	–	0.983	> 10000 nM	0.964	> 2000 nM
JEKO-1 (B-cell lymphoma, suspension)	–	–	–	–	0.603	118 nM	–	–	–	–	–	–	–	–	0.824	7.03 nM	0.918	> 10000 nM	–	–	0.987	> 10000 nM	0.987	> 2000 nM
NCI-H1105 (small cell lung carcinoma, suspension)	–	–	–	–	0.992	> 1000 nM	–	–	–	–	–	–	–	–	0.93	> 12.5 nM	–	–	–	–	0.993	> 10000 nM	0.993	> 2000 nM
ZR-75-30 (breast, adherent)	–	–	–	–	0.981	> 1000 nM	–	–	–	–	–	–	–	–	0.861	> 12.5 nM	0.95	> 10000 nM	–	–	0.976	> 10000 nM	0.949	> 2000 nM
VMRC-MELG (melanoma, adherent)	0.28	73.4 nM	0.238	209 nM	0.988	> 1000 nM	0.791	1210 nM	0.974	> 20000 nM	0.978	> 1020 nM	0.9	> 2560 nM	0.907	> 12.5 nM	0.953	> 10000 nM	0.987	> 128 nM	–	–	–	–
SW1990 (pancreas, adherent)	0.847	4790 nM	0.984	> 20000 nM	0.912	> 1000 nM	0.808	1610 nM	0.981	> 20000 nM	0.976	> 1020 nM	0.966	> 2560 nM	0.842	11.2 nM	0.914	> 10000 nM	0.978	> 128 nM	–	–	–	–
PA-TU-8988T (pancreas, adherent)	0.044	< 20 nM	0.635	2960 nM	0.98	> 1000 nM	0.703	600 nM	0.984	> 20000 nM	0.983	> 1020 nM	0.977	> 2560 nM	0.724	3.39 nM	0.849	7580 nM	0.731	36.5 nM	–	–	–	–
Daoy (medulloblastoma, adherent)	0.021	< 20 nM	0.143	113 nM	0.984	> 1000 nM	0.63	351 nM	0.949	> 20000 nM	0.968	> 1020 nM	0.935	> 2560 nM	0.54	0.993 nM	0.848	6430 nM	0.622	16.8 nM	–	–	–	–
U-266 (myeloma, semi-adherent)	–	–	–	–	–	–	–	–	–	–	–	–	–	–	0.682	3.03 nM	–	–	–	–	0.98	> 10000 nM	0.98	> 2000 nM
A2058 (melanoma, adherent)	0.151	31.6 nM	0.8	8490 nM	–	–	0.877	2100 nM	0.949	> 20000 nM	0.989	> 1020 nM	0.967	> 2560 nM	0.495	0.76 nM	0.931	> 10000 nM	0.629	17.4 nM	–	–	–	–
MDA-MB-175-VII (breast, adherent)	0.427	198 nM	0.656	3560 nM	0.986	> 1000 nM	0.908	> 2560 nM	0.964	> 20000 nM	0.985	> 1020 nM	0.946	> 2560 nM	0.945	> 12.5 nM	0.984	> 10000 nM	0.987	> 128 nM	–	–	–	–
